Laboratory results as given in the BET-seq Pho4 binding data (Le et al. 2018).
The list shows a part of the results. Values were computed here from the reads of four pooled replicates and scatter widely.

Molecular target: T1, Pho4 (S. cerevisiae) (UniProt P07270)
T1 sequence: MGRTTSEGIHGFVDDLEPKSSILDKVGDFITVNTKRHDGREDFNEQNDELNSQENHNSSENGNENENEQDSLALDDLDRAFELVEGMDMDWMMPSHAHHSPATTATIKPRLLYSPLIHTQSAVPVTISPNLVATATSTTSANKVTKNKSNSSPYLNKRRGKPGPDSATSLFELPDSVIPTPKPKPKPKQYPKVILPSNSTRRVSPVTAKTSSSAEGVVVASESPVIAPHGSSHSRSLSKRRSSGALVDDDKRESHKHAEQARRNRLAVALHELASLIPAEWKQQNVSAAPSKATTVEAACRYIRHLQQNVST
Test: relative binding free energy (BET-seq); higher = weaker binding
Conditions: reference: library average

Sequence | relative binding free energy
GCATGCACGTGGTTTG | -0.08 kcal/mol
GTCTTCACGTGGGGCT | 0.17 kcal/mol
TATTGCACGTGGTAAC | 0.05 kcal/mol
TAGTTCACGTGTCTAT | 0.1 kcal/mol
GGTGACACGTGTTTTG | 0.01 kcal/mol
AATGGCACGTGGATTC | 0.05 kcal/mol
GGTTGCACGTGTATTG | 0.19 kcal/mol
CGTGGCACGTGTTCGG | -0.11 kcal/mol
GGCATCACGTGGTGTG | 0.07 kcal/mol
AGCGACACGTGAGTTT | 0.28 kcal/mol
GGTTGCACGTGAGAGT | 0.31 kcal/mol
TTTCACACGTGAGAAT | 0.43 kcal/mol
TAATTCACGTGTTATA | 0.16 kcal/mol
AGGGGCACGTGGGCCT | -0.37 kcal/mol
TTGAACACGTGAAGGG | 0.37 kcal/mol
ATTAGCACGTGGTAGA | -0.21 kcal/mol
GGATGCACGTGTTAAA | 0 kcal/mol
TCGGACACGTGTGTTG | 0.13 kcal/mol
TTGGACACGTGGTGGA | -0.06 kcal/mol
TTGCACACGTGTTTGG | 0.13 kcal/mol
ATATCCACGTGGGATT | -0.02 kcal/mol
GTAGTCACGTGTTCAT | 0.13 kcal/mol
TTGGGCACGTGGTCAG | -0.22 kcal/mol
TCATGCACGTGTGATA | 0.07 kcal/mol
CGTTTCACGTGACATG | 0.48 kcal/mol
AGCGTCACGTGGTTAA | 0.08 kcal/mol

Sequence | relative binding free energy
ACTGGCACGTGGATGG | -0.09 kcal/mol
ATTTACACGTGGGCAT | 0.12 kcal/mol
TATTTCACGTGAAGAT | 0.25 kcal/mol
ATCGTCACGTGTGGGA | 0.27 kcal/mol
TGTTACACGTGATAAT | 0.24 kcal/mol
TGAAGCACGTGTTGCG | -0.22 kcal/mol
GGGTACACGTGGTGAT | 0.03 kcal/mol
ACAAGCACGTGGGTTG | -0.22 kcal/mol
ACGATCACGTGATAGT | 0.37 kcal/mol
AGGTTCACGTGGTGCT | 0.08 kcal/mol
CTTGGCACGTGGCTGG | -0.13 kcal/mol
GCTGTCACGTGGGTAT | -0.15 kcal/mol
CGAGTCACGTGGTGGT | 0.08 kcal/mol
AAGGCCACGTGGAGTG | -0.06 kcal/mol
GAGTGCACGTGACTTG | 0.21 kcal/mol
TTAATCACGTGGTTGT | 0.14 kcal/mol
TATGACACGTGTTGCG | -0.05 kcal/mol
GAGTGCACGTGGGGTC | -0.06 kcal/mol
TTGTGCACGTGGATGA | 0.07 kcal/mol
AGAGTCACGTGGACGG | 0.18 kcal/mol
CTGTGCACGTGTACGT | -0.04 kcal/mol
AACGACACGTGGGTGT | -0.17 kcal/mol
CTGATCACGTGATTTG | 0.2 kcal/mol
TATGTCACGTGGTCGT | -0.09 kcal/mol
GTATTCACGTGTGGCT | 0.4 kcal/mol
GTGGTCACGTGGATCT | 0.26 kcal/mol

Sequence | relative binding free energy
CGTGACACGTGCGTGG | -0.06 kcal/mol
TCTTGCACGTGGTGGT | 0.04 kcal/mol
TAATGCACGTGGCCGG | -0.1 kcal/mol
TAGCGCACGTGGTCGG | -0.15 kcal/mol
ATTGGCACGTGGCGAT | -0.17 kcal/mol
GGTGACACGTGTATTG | 0.02 kcal/mol
ATCGGCACGTGAGGGG | 0.15 kcal/mol
GGGTGCACGTGGTTCT | -0.01 kcal/mol
TTTGACACGTGAGTTG | 0.23 kcal/mol
CATGGCACGTGGGCTG | -0.38 kcal/mol
TCGAACACGTGTTGGG | 0.03 kcal/mol
ATTTACACGTGGCAGG | 0.17 kcal/mol
TGGGGCACGTGGGCCT | -0.14 kcal/mol
ATCTGCACGTGGCGTG | -0.08 kcal/mol
ATTTCCACGTGTAATT | 0.16 kcal/mol
GGCCGCACGTGGGTTT | -0.09 kcal/mol
AAGATCACGTGGGTAT | -0.01 kcal/mol
GACGGCACGTGTGAGT | 0.18 kcal/mol
TATGGCACGTGTTGGC | 0 kcal/mol
GGTGTCACGTGTTCGA | 0.19 kcal/mol
GTGTACACGTGTGATC | 0.13 kcal/mol
AGAAGCACGTGCTTGT | -0.08 kcal/mol
TGTCTCACGTGACGGT | 0.29 kcal/mol
CTAGGCACGTGTGGGA | -0.17 kcal/mol
TGTGACACGTGACGTG | 0.28 kcal/mol
CGGGGCACGTGGTTAC | -0.16 kcal/mol

Sequence | relative binding free energy
TGTTTCACGTGACGTT | 0.34 kcal/mol
GTTATCACGTGTTAGC | 0.16 kcal/mol
TTGGTCACGTGCGGGT | 0.2 kcal/mol
CAGGTCACGTGGTATG | 0.14 kcal/mol
TTGGGCACGTGGTACA | -0.3 kcal/mol
AACTTCACGTGGGGTT | 0.06 kcal/mol
GTTTGCACGTGCCGGA | 0.07 kcal/mol
TTTACCACGTGATTTT | -0.02 kcal/mol
GGAAGCACGTGGGAGG | -0.23 kcal/mol
GGGCGCACGTGGGTCT | -0.26 kcal/mol
CTGGTCACGTGGGAGC | 0.1 kcal/mol
TTAAGCACGTGATTAT | -0.04 kcal/mol
GCTATCACGTGGTTGA | 0.26 kcal/mol
GTGTTCACGTGTAGCT | 0.3 kcal/mol
CGCTGCACGTGGGTGG | -0.14 kcal/mol
TTACGCACGTGTGCGG | -0.09 kcal/mol
TATGACACGTGTGCTT | -0.04 kcal/mol
TTGAACACGTGGTATT | 0.02 kcal/mol
TGGCACACGTGAGGTG | 0.39 kcal/mol
TTGTCCACGTGAGATT | 0.26 kcal/mol
TAGCTCACGTGTTTTA | 0.13 kcal/mol
TCATGCACGTGTGCGG | -0.08 kcal/mol
AATTGCACGTGGGCAG | -0.21 kcal/mol
TCGTGCACGTGGCTTT | -0.05 kcal/mol
TTTGTCACGTGACATG | 0.2 kcal/mol
GGACTCACGTGGGGCG | 0.1 kcal/mol

Sequence | relative binding free energy
GTGTACACGTGGAGCA | 0.19 kcal/mol
GTGTGCACGTGTTTAA | -0.04 kcal/mol
AATTACACGTGGCGGG | -0.05 kcal/mol
GCTAGCACGTGTATGT | -0.06 kcal/mol
GTTGACACGTGAGGAC | 0.34 kcal/mol
GGGATCACGTGGTAGG | 0.15 kcal/mol
AGGGTCACGTGGATGC | 0.07 kcal/mol
TCTGTCACGTGGAGGT | 0 kcal/mol
GGGGGCACGTGTTCAA | -0.06 kcal/mol
GTGCACACGTGCAGGG | 0.09 kcal/mol
CGAGGCACGTGGGGGC | -0.23 kcal/mol
TATATCACGTGAACTT | 0.52 kcal/mol
GGTTACACGTGGCGCG | 0.18 kcal/mol
TGGCTCACGTGTTAAG | 0.3 kcal/mol
GTGCGCACGTGTGAAG | -0.03 kcal/mol
GTTTACACGTGATAAA | 0.47 kcal/mol
CATTGCACGTGCGGGT | -0.13 kcal/mol
ACGTTCACGTGATGGG | 0.27 kcal/mol
GTAGACACGTGGAATT | 0.28 kcal/mol
ATATACACGTGTGTGT | -0.02 kcal/mol
TGGGCCACGTGTAGGC | 0.01 kcal/mol
AGGTTCACGTGTCGTT | 0.34 kcal/mol
GTGGGCACGTGTCCGG | -0.12 kcal/mol
AAGTGCACGTGTCAGG | -0.04 kcal/mol
TCTGTCACGTGTTTGG | 0.2 kcal/mol
TGTAGCACGTGGATGA | -0.09 kcal/mol

Sequence | relative binding free energy
TTCGTCACGTGAGGTC | 0.38 kcal/mol
TAAAGCACGTGGTCGT | -0.15 kcal/mol
TGGGTCACGTGACAGG | 0.26 kcal/mol
TACGTCACGTGTTAGT | 0.07 kcal/mol
GGCTTCACGTGAATGT | 0.35 kcal/mol
CGGAGCACGTGAGTGG | 0.15 kcal/mol
GAGTTCACGTGTTGAG | 0.34 kcal/mol
ATATGCACGTGGCTTG | -0.08 kcal/mol
GTGATCACGTGTCAGT | 0.12 kcal/mol
GAGAGCACGTGGGGGA | -0.2 kcal/mol
AGATGCACGTGCCGGG | -0.05 kcal/mol
ATGAGCACGTGGAGTC | 0.05 kcal/mol
AGGTACACGTGAGGGT | 0.26 kcal/mol
TTCGGCACGTGTGTTC | -0.04 kcal/mol
GGTTTCACGTGTCGGT | 0.3 kcal/mol
TTAGGCACGTGGCTGT | -0.21 kcal/mol
GGGTACACGTGGGCAG | 0 kcal/mol
TAACTCACGTGTTTGG | 0.16 kcal/mol
AGTTGCACGTGCTAGT | -0.09 kcal/mol
TATGGCACGTGGAGCG | -0.1 kcal/mol
AGACGCACGTGGAGCG | 0.01 kcal/mol
GTTGTCACGTGCAATG | 0.05 kcal/mol
TAGTGCACGTGTAAGT | 0.06 kcal/mol
CTTGTCACGTGTGAAG | 0.32 kcal/mol
GTGCGCACGTGGATGT | -0.08 kcal/mol
TATTGCACGTGTAGTT | 0.1 kcal/mol

Sequence | relative binding free energy
GTTTGCACGTGTCTGG | 0.06 kcal/mol
AGGGGCACGTGGCAGC | -0.24 kcal/mol
TGTGCCACGTGGGATT | -0.19 kcal/mol
TTAGACACGTGGGTTA | -0.11 kcal/mol
GGGGACACGTGGTAGA | 0.02 kcal/mol
AGTGGCACGTGGTCTA | -0.43 kcal/mol
AGGGTCACGTGGAGAC | 0.04 kcal/mol
ATTATCACGTGGTCTA | 0.03 kcal/mol
GTTGTCACGTGGGCGT | 0.03 kcal/mol
AGTGGCACGTGTCAAG | 0.06 kcal/mol
TGAATCACGTGCTTGT | 0.05 kcal/mol
GGGTACACGTGACGTG | 0.3 kcal/mol
ACGGGCACGTGAAGTT | 0.13 kcal/mol
TTATACACGTGTGTAT | -0.01 kcal/mol
GAGGCCACGTGAGTTG | 0.31 kcal/mol
CTTTGCACGTGAGTGT | 0.15 kcal/mol
AGTTTCACGTGGCGGA | 0.21 kcal/mol
GGGGTCACGTGGCAGC | 0.04 kcal/mol
CAGGGCACGTGGGAAG | -0.14 kcal/mol
TTTGGCACGTGAAGTG | 0.13 kcal/mol
GAGGTCACGTGTGCGG | 0.11 kcal/mol
AGGTGCACGTGTTATC | 0.01 kcal/mol
TGGGGCACGTGTGCGT | -0.1 kcal/mol
AATAGCACGTGATGCT | 0.17 kcal/mol
AGGTACACGTGCTGGG | 0 kcal/mol
GTCGTCACGTGTAGAG | 0.12 kcal/mol

Sequence | relative binding free energy
TTAAGCACGTGCTTTT | -0.24 kcal/mol
CTTGTCACGTGGAGCG | 0.13 kcal/mol
GTTGGCACGTGAGATT | 0.25 kcal/mol
TTATACACGTGCGATT | 0.04 kcal/mol
ATTGTCACGTGTCTCG | 0.14 kcal/mol
CTGGGCACGTGCTTTG | -0.18 kcal/mol
ATGTTCACGTGTATGT | 0.29 kcal/mol
GCGTCCACGTGAGTGG | 0.31 kcal/mol
GTTTCCACGTGTTTTG | 0.12 kcal/mol
GGTGTCACGTGCACGG | 0.08 kcal/mol
GAGGTCACGTGTGTTG | 0.09 kcal/mol
ATTGGCACGTGTGTAT | -0.02 kcal/mol
GGTATCACGTGCTGTG | 0.19 kcal/mol
TTGACCACGTGTTAGT | -0.05 kcal/mol
GTCAGCACGTGGGGGT | -0.24 kcal/mol
GTAAACACGTGGTAGT | -0.11 kcal/mol
CAGATCACGTGGGGGA | 0.01 kcal/mol
TCGGGCACGTGAGGGC | 0.1 kcal/mol
ATGCTCACGTGGTTTT | 0.34 kcal/mol
CTGTACACGTGATATT | 0.15 kcal/mol
CTGTTCACGTGCGTGT | 0.13 kcal/mol
GTTGGCACGTGGGCTC | -0.24 kcal/mol
AAGTGCACGTGGGTAC | -0.08 kcal/mol
GTTCGCACGTGGGTTA | -0.14 kcal/mol
TGTATCACGTGGTTTT | 0.1 kcal/mol
TGTCGCACGTGGGAGA | -0.07 kcal/mol

Sequence | relative binding free energy
GTGTCCACGTGTGTTT | 0.08 kcal/mol
TGTGTCACGTGCTCGA | 0.02 kcal/mol
CCGTTCACGTGGGGTG | 0.12 kcal/mol
AGTTTCACGTGATATG | 0.31 kcal/mol
TGCCTCACGTGCGGGG | 0.1 kcal/mol
TATTACACGTGGTAGA | -0.07 kcal/mol
ATTTACACGTGGTTTC | 0.08 kcal/mol
ACGTTCACGTGGGGAA | 0.11 kcal/mol
GGTTCCACGTGATGTT | 0.21 kcal/mol
GTGCGCACGTGTTTTG | 0.02 kcal/mol
ATGTTCACGTGGGTGA | 0.2 kcal/mol
GATTTCACGTGGGATG | 0.27 kcal/mol
CGCGTCACGTGAGTGG | 0.13 kcal/mol
GCTTTCACGTGTGTAG | 0.23 kcal/mol
TATTTCACGTGTGGGC | 0.3 kcal/mol
GCTCGCACGTGGTGGT | -0.1 kcal/mol
AGAGGCACGTGAGTCG | 0.05 kcal/mol
ATGCACACGTGGCGTT | 0.12 kcal/mol
TAAAGCACGTGTAGTG | -0.11 kcal/mol
TTAAACACGTGGTGTC | -0.07 kcal/mol
TCGGGCACGTGAGAAT | 0.29 kcal/mol
GTCTTCACGTGGTCGG | 0.26 kcal/mol
